In patent publication US11178870B2 (priority 2017, dated 2021):

Assays:
[1] = test system: Magnaporthe grisea; assay type: in vivo; settings: Table 7, Test A
[2] = test system: Phytophthora infestans; assay type: in vivo; settings: Table 7, Test F
[3] = test system: Colletotrichum orbiculare; settings: 250 ppm sprayed (2.5 ml/pot) before inoculation; assessed 6 to 10 days after inoculation

| Compound | control value, Test A (blast on rice) [1] | control value, Test F (late blight on tomato) [2] | control value, Test H (anthracnose on cucumber) [3] |
| --- | --- | --- | --- |
| O=c1c(Br)cc(-n2cc(Cl)cn2)c(-c2c(F)cc(F)cc2F)n1CC(F)F [Compound 207] | H (H shows the control value more than 50%) | L (L shows the control value of 50% or less) | H (H shows the control value more than 50%) |
| O=c1c(Br)cc(-n2cc(Cl)cn2)c(-c2ccccc2Cl)n1CC(F)F [Compound 294] | H (H shows the control value more than 50%) | L (L shows the control value of 50% or less) | L (L shows the control value of 50% or less) |
| CCn1c(-c2c(F)cccc2Br)c(-n2cc(Cl)cn2)ccc1=O [Compound 216] | L (L shows the control value of 50% or less) | L (L shows the control value of 50% or less) | H (H shows the control value more than 50%) |
| Cc1cnn(-c2cc(Cl)c(=O)n(CC(F)F)c2-c2ccccc2F)c1Cl [Compound 310] | H (H shows the control value more than 50%) | L (L shows the control value of 50% or less) | H (H shows the control value more than 50%) |
| CCOc1cc(F)c(-c2c(-n3cc(F)cn3)cc(Br)c(=O)n2CC)c(F)c1 [Compound 317] | L (L shows the control value of 50% or less) | – | – |
| CCn1c(-c2ccccc2OC)c(-n2cc(Cl)cn2)ccc1=O [Compound 242] | L (L shows the control value of 50% or less) | L (L shows the control value of 50% or less) | L (L shows the control value of 50% or less) |
| O=c1ccc(-n2cc(Cl)cn2)c(-c2ccc(F)cc2Br)n1CC(F)F [Compound 273] | H (H shows the control value more than 50%) | L (L shows the control value of 50% or less) | L (L shows the control value of 50% or less) |
| O=c1c(Cl)cc(-n2cc(Cl)cn2)c(-c2ccccc2F)n1CC(F)F [Compound 277] | H (H shows the control value more than 50%) | L (L shows the control value of 50% or less) | L (L shows the control value of 50% or less) |
| CCn1c(-c2ccccc2F)c(-n2cc(C)cn2)cc(Br)c1=O [Compound 260] | L (L shows the control value of 50% or less) | L (L shows the control value of 50% or less) | L (L shows the control value of 50% or less) |
| O=c1ccc(-n2cc(Cl)cn2)c(-c2ccccc2Cl)n1CC(F)F [Compound 292] | L (L shows the control value of 50% or less) | L (L shows the control value of 50% or less) | L (L shows the control value of 50% or less) |
| CCn1c(-c2c(F)cc(OC)c(I)c2F)c(-n2cc(Cl)cn2)cc(I)c1=O [Compound 253] | L (L shows the control value of 50% or less) | L (L shows the control value of 50% or less) | L (L shows the control value of 50% or less) |
| CCn1c(-c2ccc(F)cc2F)c(-n2ncc(C)c2Br)cc(Br)c1=O [Compound 270] | H (H shows the control value more than 50%) | L (L shows the control value of 50% or less) | H (H shows the control value more than 50%) |
| Cc1ccccc1-c1c(-n2ncc(C)c2Cl)cc(Br)c(=O)n1CC(F)F [Compound 307] | H (H shows the control value more than 50%) | L (L shows the control value of 50% or less) | H (H shows the control value more than 50%) |
| O=c1c(Br)cc(-n2cc(F)cn2)c(-c2ccc(F)cc2F)n1CC(F)F [Compound 286] | H (H shows the control value more than 50%) | L (L shows the control value of 50% or less) | H (H shows the control value more than 50%) |
| CCn1c(-c2c(F)cc(F)cc2F)c(-n2cnc(Cl)n2)cc(Cl)c1=O [Compound 261] | H (H shows the control value more than 50%) | L (L shows the control value of 50% or less) | H (H shows the control value more than 50%) |
| CCn1c(-c2ccccc2F)c(-n2cc(Cl)cn2)cc(Br)c1=O [Compound 221] | L (L shows the control value of 50% or less) | L (L shows the control value of 50% or less) | L (L shows the control value of 50% or less) |
